T1: VEGF (VEGF 1-165 aa) (UniProt P15692 27-191)
T1 construct: range 1-165; '1-165 aa' is the vendor's designation; it probably counts on the mature VEGF165 isoform, not on the precursor
T1 sequence (looked up): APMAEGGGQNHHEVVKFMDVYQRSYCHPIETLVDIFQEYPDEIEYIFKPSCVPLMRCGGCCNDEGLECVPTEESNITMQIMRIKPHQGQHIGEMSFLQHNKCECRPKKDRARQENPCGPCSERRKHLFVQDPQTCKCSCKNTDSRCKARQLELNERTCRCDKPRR

B1: D2E7-13C5.5L3F DVD-Ig LC12HC6 (bispecific antibody)
heavy: not shown
light: [about 100 residues omitted here]TVAAPSVFIFPPDIQMTQSPSSLSASVGDRVTISCRASQDIRNYLNWYQQKPGKAPKLLIFYTSKLHSGVPSRFSGSGSGTDYTLTISSLQPEDIATYYCQQGLTPPLTFGGGTKVEIKRTVAAPSVFIFPPSDEQLKSGTASVVCLLNNFYPREAKVQWKVDNALQSGNSQESVTEQDSKDSTYSLSSTLTLSKADYEKHKVYACEVTHQGLSSPVTKSFNRGEC
notes: TNF (outer) / IL-13 (inner) DVD-Ig of the D2E7-13C5.5L3F series
B2: DVD695 (bispecific antibody, human IgG1, kappa)
heavy: EVQLVESGGGLVQPGGSLRLSCAASGFSFSSEPISWVRQAPGKGLEWVSSITGKNGYTYYADSVKGRFTISADTSKNTAYLQMNSLRAEDTAVYYCARWGKKVYGMDVWGQGTLVTVSSASTKGPEVQLVESGGGLVQPGGSLRLSCAASGYTFTNYGMNWVRQAPGKGLEWVGWINTYTGEPTYAADFKRRFTFSLDTSKSTAYLQMNSLRAEDTAVYYCAKYPHYYGSSHWYFDVWGQGTLVTVSS[human IgG1 constant region omitted here]
light: DIQMTQSPSSLSASVGDRVTITCRASQSISSYLAWYQQKPGKAPKLLIYGASSRASGVPSRFSGSGSGTDFTLTISSLQPEDFATYYCQQYMSVPITFGQGTKVEIKRTVDDDDKAAPDIQMTQSPSSLSASVGDRVTITCSASQDISNYLNWYQQKPGKAPKVLIYFTSSLHSGVPSRFSGSGSGTDFTLTISSLQPEDFATYYCQQYSTVPWTFGQGTKVEIKRTVAAPSVFIFPPSDEQLKSGTASVVCLLNNFYPREAKVQWKVDNALQSGNSQESVTEQDSKDSTYSLSSTLTLSKADYEKHKVYACEVTHQGLSSPVTKSFNRGEC
notes: NRP1 (outer) / VEGF (inner) DVD-Ig; also called DVD695 DVD-Ig
B3: DVD697 (bispecific antibody, human IgG1, kappa)
heavy: EVQLVESGGGLVQPGGSLRLSCAASGFSFSSEPISWVRQAPGKGLEWVSSITGKNGYTYYADSVKGRFTISADTSKNTAYLQMNSLRAEDTAVYYCARWGKKVYGMDVWGQGTLVTVSSGGGGGGGPEVQLVESGGGLVQPGGSLRLSCAASGYTFTNYGMNWVRQAPGKGLEWVGWINTYTGEPTYAADFKRRFTFSLDTSKSTAYLQMNSLRAEDTAVYYCAKYPHYYGSSHWYFDVWGQGTLVTVSS[human IgG1 constant region omitted here]
light: DIQMTQSPSSLSASVGDRVTITCRASQSISSYLAWYQQKPGKAPKLLIYGASSRASGVPSRFSGSGSGTDFTLTISSLQPEDFATYYCQQYMSVPITFGQGTKVEIKRGGGGGGPDIQMTQSPSSLSASVGDRVTITCSASQDISNYLNWYQQKPGKAPKVLIYFTSSLHSGVPSRFSGSGSGTDFTLTISSLQPEDFATYYCQQYSTVPWTFGQGTKVEIKRTVAAPSVFIFPPSDEQLKSGTASVVCLLNNFYPREAKVQWKVDNALQSGNSQESVTEQDSKDSTYSLSSTLTLSKADYEKHKVYACEVTHQGLSSPVTKSFNRGEC
notes: NRP1 (outer) / VEGF (inner) DVD-Ig; also called DVD697 DVD-Ig
B4: DVD698 (bispecific antibody, human IgG1, kappa)
heavy: EVQLVESGGGLVQPGGSLRLSCAASGFSFSSEPISWVRQAPGKGLEWVSSITGKNGYTYYADSVKGRFTISADTSKNTAYLQMNSLRAEDTAVYYCARWGKKVYGMDVWGQGTLVTVSSGGGGGGGGPEVQLVESGGGLVQPGGSLRLSCAASGYTFTNYGMNWVRQAPGKGLEWVGWINTYTGEPTYAADFKRRFTFSLDTSKSTAYLQMNSLRAEDTAVYYCAKYPHYYGSSHWYFDVWGQGTLVTVSS[human IgG1 constant region omitted here]
light: DIQMTQSPSSLSASVGDRVTITCRASQSISSYLAWYQQKPGKAPKLLIYGASSRASGVPSRFSGSGSGTDFTLTISSLQPEDFATYYCQQYMSVPITFGQGTKVEIKRGGGGGGGPDIQMTQSPSSLSASVGDRVTITCSASQDISNYLNWYQQKPGKAPKVLIYFTSSLHSGVPSRFSGSGSGTDFTLTISSLQPEDFATYYCQQYSTVPWTFGQGTKVEIKRTVAAPSVFIFPPSDEQLKSGTASVVCLLNNFYPREAKVQWKVDNALQSGNSQESVTEQDSKDSTYSLSSTLTLSKADYEKHKVYACEVTHQGLSSPVTKSFNRGEC
notes: NRP1 (outer) / VEGF (inner) DVD-Ig; also called DVD698 DVD-Ig
B5: DVD696 (bispecific antibody, human IgG1, kappa)
heavy: B2 heavy
light: DIQMTQSPSSLSASVGDRVTITCRASQSISSYLAWYQQKPGKAPKLLIYGASSRASGVPSRFSGSGSGTDFTLTISSLQPEDFATYYCQQYMSVPITFGQGTKVEIKRLVPRGSAAPDIQMTQSPSSLSASVGDRVTITCSASQDISNYLNWYQQKPGKAPKVLIYFTSSLHSGVPSRFSGSGSGTDFTLTISSLQPEDFATYYCQQYSTVPWTFGQGTKVEIKRTVAAPSVFIFPPSDEQLKSGTASVVCLLNNFYPREAKVQWKVDNALQSGNSQESVTEQDSKDSTYSLSSTLTLSKADYEKHKVYACEVTHQGLSSPVTKSFNRGEC
notes: NRP1 (outer) / VEGF (inner) DVD-Ig; also called DVD696 DVD-Ig

Experiments:
[1] = molecular target: T2, rhTNFα (human recombinant TNFα) (human, UniProt P01375 fragment); experiment: cell-based or functional assay
[2] = molecular target: T3, rhIL-13 (recombinant human IL-13) (human, UniProt P35225 fragment, limits assumed); experiment: cell-based or functional assay
[3] = molecular target: T2, rhTNFα (human recombinant TNFα); experiment: SPR (Biacore 3000), DVD-Ig captured by anti-human IgG Fc, antigen in solution
T2 sequence (P01375 77-233 limits assumed): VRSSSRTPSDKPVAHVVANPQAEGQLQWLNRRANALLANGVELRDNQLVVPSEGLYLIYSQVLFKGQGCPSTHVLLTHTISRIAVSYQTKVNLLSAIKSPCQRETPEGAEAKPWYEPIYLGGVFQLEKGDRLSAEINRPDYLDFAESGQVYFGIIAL

[4] = molecular target: T3, rhIL-13 (recombinant human IL-13); experiment: as above
T3 sequence (P35225 35-146 limits assumed): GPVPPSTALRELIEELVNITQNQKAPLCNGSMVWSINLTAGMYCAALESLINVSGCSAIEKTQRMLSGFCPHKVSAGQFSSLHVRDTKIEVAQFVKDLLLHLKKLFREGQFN

[5] = molecular target: T4, NRP1 (Neuropilin-1 Npn-1-His tag) (UniProt O14786-2 22-644, limits assumed); experiment: direct bind ELISA, antigen on plate
T4 construct: Bought antigen with a His tag
Protocol: (§1) Enzyme Linked Immunosorbent Assays to screen for antibodies that bind a desired target antigen were performed as follows. […] Plates were washed four times with PBS containing 0.02% Tween 20. […] Plates were washed four times after blocking with PBS containing 0.02% Tween 20.
(§2) One hundred microliters of 10 ng/mL goat anti-human IgG-FC specific HRP conjugated antibody (Southern Biotech #2040-05, Birmingham, Ala.) was added to each well of the desired target antigen plate or anti-polyHistidine antibody/Histidine tagged desired target antigen plate. Alternatively, one hundred microliters of 10 ng/mL goat anti-human IgG-kappa light chain specific HRP conjugated antibody (Southern Biotech #2060-05 Birmingham, Ala.) was added to each well of the desired target antigen/FC fusion plate and incubated for 1 hour at room temperature. Plates were washed 4 times with PBS containing 0.02% Tween 20.

VEGF (VEGF 1-165 aa) = molecular target: T1, VEGF (VEGF 1-165 aa); experiment: direct bind ELISA, antigen on plate
Protocol: as §1, §2

Row | Binder | Anti-TNF activity by L929 bioassay (IC50, nM) [1] [nM] | Anti-IL-13 activity by A549 bioassay (IC50, nM) [2] [nM] | Kd [3] [nM] | Kd [4] [nM] | EC50 [5] [nM] | EC50 (VEGF (VEGF 1-165 aa)) [nM]
1 | B1 | 0.028 | 0.52 | 0.008 | 0.402 | – | –
2 | B2 | – | – | – | – | 0.32 | 0.37
3 | B3 | – | – | – | – | 0.27 | 0.42
4 | B4 | – | – | – | – | 0.3 | 0.35
5 | B5 | – | – | – | – | 0.28 | 0.33

Source: patent US20100233079A1 (AbbVie / Abbott, published 2010)
